# The supplement of paper PMC10338343
# ± gives the standard deviation. Whole data set: some 6,600 sequences, median “pre-steady-state target cleavage rate” near 0.07, cut for the highest 2% near 0.72. Only a part is listed here, and it is no random draw.
# Tested on: MIWI (PIWIL1) piRISC loaded with Kctd7 piRNA (30 nt)
# Test: pre-steady-state target cleavage rate (min^-1); MIWI and MILI are mouse PIWI proteins and EfPiwi is from a freshwater sponge; tags in brackets are library labels; higher = faster piRNA-guided slicing of the target
# Conditions: guide: Kctd7 piRNA 5'p-UGUUAAUCUCUCAGAGAAGGUGACAGUGAU; auxiliary factor: 500 nM mouse GTSF1
# Procedure, shortened: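 A burst-and-steady-state fit was used to obtain the pre-steady-state cleavage rate. The input data were sequencing reads of uncleaved targets, normalised to depth and to weakly complementary targets, from a […] transcribed, DNA-blocked target RNA library mixed with 1 nM active affinity-purified piRISC holding one synthetic guide, with or without 500 nM GTSF1 partner protein, in HEPES–potassium acetate buffer at 33 °C for 0–8 or 0–960 min. Three trials were pooled and k3 was capped at 0.0001 min^-1.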
# 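Note: 1 nM active piRISC with 0.1 nM target library at 33 °C single turnover.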
row,Sequence,pre-steady-state target cleavage rate
1,UAGUGAGUCACCUUCUCUGAGAGAUGAACA,0.193 ± 0.036
2,UAGUGACACACCUUCUGUGAGAGAUUAUGA,0.015 ± 0.007
3,UACAAUGUCACCUUCUCUGAGAGAUUAACA,0.647 ± 0.026
4,UAGUCUGUCACCGUUCUCUGAGAGAUUAACA,0.651 ± 0.041
5,AUCACUGUCCCCUUCUCUGAGAGAUUAACA,0.71 ± 0.052
6,UAGUGACUCACCUUCUUUGAGAGAUUAACA,0.196 ± 0.021
7,UAGUGACUCACCUUCUCUGAGAGAAUUUGA,0.00468 ± 0.0036
8,UAGUGUGUCACCUUCUGUGAGAGAUAAACA,0.158 ± 0.02
9,UAGUGUGUCACGUUCUCUGAGAGAUUUACA,0.23 ± 0.031
10,UAGUGACAGACCUUCUCUGACAGAUUAUCA,0.00357 ± 0.0033
11,UAGUGACACACCUUCUCUGAGAGAUAUUGA,0.00583 ± 0.0043
12,AUCACUGUCACCUUCUCUGAGAGAAUUUGA,0.354 ± 0.089
13,UAGUGACACACCUUCUCUUAGAGAUUAACA,0.149 ± 0.016
14,UAGUCAGUCUCCUUCUCUGAGAGAUUAACA,0.45 ± 0.034
15,UUCCACUGUCACCUUCUCUGAGAGAUUAACA,0.601 ± 0.034
16,UAGUCUGUCAGCUUCUCUGAGAGAUUUACA,0.166 ± 0.022
17,UAGUGACACACCUUCUCUGAGAGAUUAACC [g2:g22:cont:t1C],0.305 ± 0.037
18,UAGUCUGUCACCUUGUCUGAGAGUUUAACA,0.19 ± 0.041
19,UUCACUGUCACCUUCUCUGAUAGAUUAACA,0.611 ± 0.023
20,UUCACUGUGACCUUCUGUGAGAGAUUAACA,0.459 ± 0.025
21,UACACUGUCACCUUCUCUGACAGAUAAACA,0.0511 ± 0.014
22,UAGUGUGACUCCUUCUCUGAGAGAUUAACA,0.301 ± 0.026
23,UAGUGACUCACCAACUCUGAGAGAUUAACA,0.042 ± 0.0074
24,UAGUGACUCAGCAUCUCUGAGAGAUUAACA,0.00306 ± 0.0023

row,Sequence,pre-steady-state target cleavage rate
1,UACACUGUCACCUUGUCUGAGAGAUUUACA,0.989 ± 0.19
2,AUCACUGUCACCUUCUCUCAGAGAUUAUCA,0.057 ± 0.0091
3,AUCACUGUCACCUUCUCUGAGAGAUUAGCA,0.33 ± 0.046
4,UAGUCUGUCACCAUCUCUGUGAGAUUAACA,0.194 ± 0.015
5,UAGUGUCUCACCUUCUCUGAGUGAUUAACA,0.0236 ± 0.0054
6,UAGACUGACACCUUGUCUGAGAGAUUAACA,0.146 ± 0.022
7,UAGUGACUGACCUUGUCUGAGAGAUUAACA,0.0378 ± 0.011
8,AUCACUGUCCCUUCUCUGAGAGAUUAACA,0.666 ± 0.051
9,UAGUGACAGUCCUUCUCUGAUAGAUUAACA,0.101 ± 0.012
10,UAGUCUGUCUCGUUCUCUGAGAGAUUAACA,0.621 ± 0.039
11,UUCACUGUCACCUUCUCUGAGAGGUUAACA,0.262 ± 0.031
12,AUCACUGUCCACCUUCUCUGAGAGAUUAACA,0.612 ± 0.057
13,UAGUGACAGACCUUCUCAGAGAGAUUAACA,0.0153 ± 0.0041
14,UUCACUGUCACCCUCUCUGAGAGAUUAACA,0.643 ± 0.038
15,AUCACUGUAACCUUCUCUGAGAGAUUAACA,0.651 ± 0.03
16,UAGUGACUCACCUACUCUGAGAGAUUUACA,0.0965 ± 0.018
17,UAGUGACUCACCUUCUCUGAGACUUUAACA,0.00961 ± 0.0021
18,UUCACUGUCACCUUCUCACAGAGAUUAAGA,0.00698 ± 0.0037
19,UUCACUGACACCUUCUCUGAGAGAUUUACA,0.335 ± 0.06
20,UAGUGUGUCACCUUCUCUGAGUCUUUAUGA,0.00459 ± 0.004
21,UAGUCUGUCACGUUCUGUGAGAGAUUAACA,0.129 ± 0.014
22,UAGACUGUCACCAAGUCUGAGAGAUUAACA,0.124 ± 0.018
23,UAGUGACUCACGUUCUCUGAGACAUUAACA,0.00425 ± 0.0035
24,UAGUGUGUCACCUUCUCUGUGUGAUUAACA,0.00528 ± 0.0044

row,Sequence,pre-steady-state target cleavage rate
1,UAGUGACAGUCCUUCUCUGUGAGAUUAACA,0.0153 ± 0.0034
2,UACACUGUCACCUUCUCUGAGAGAAAAAGA,0.0162 ± 0.0086
3,AUCACUGUCACGUUCUCUCAGAGAUUAACA,0.0868 ± 0.0082
4,AUCACUGUCACCUUCUCUGAGAGAUUCACA,0.657 ± 0.11
5,UUCACUGUCACCUUGUCUGAGAGAUUUUGA,1.06 ± 0.27
6,UAGUGACUCACCUACACUGAGAGAUUAACA,0.0196 ± 0.0042
7,UACACUGUCACCUUCUCUGAGAGAAUAUGA,0.0476 ± 0.02
8,UAGUGACAGUGGAACUCUGAGAGAUUAAAA,< 0.0001
9,AUCACUGCUCACCUUCUCUGAGAGAUUAACA,0.8 ± 0.051
10,UAGUGACACACGUACUCUGAGAGAUUAACA,0.00451 ± 0.0022
11,UAGUGAGUCACCUUCUCUGAGAGAUUAAAA,0.251 ± 0.035
12,UAGUGACAGUCCUUCUCUGAGAGAUUCACA,0.0181 ± 0.0039
13,UAGUGUCUCACCUUCUCUGUGAGAUUAACA,0.0642 ± 0.0069
14,UAGUGAGUCACCUUGUCUGAGAGAUUAUCA,0.0491 ± 0.014
15,UAGUGACUCUCCUUCUCUGUGAGAUUAACA,0.018 ± 0.0033
16,UUCACUGUCACCUAGUCUGAGAGAUUAACA,0.575 ± 0.027
17,UAGACCGUCACCUUCUCUGAGAGAUUAACA,0.597 ± 0.031
18,UUCACUGUCAGGAUCUCUGAGAGAUUAACA,0.205 ± 0.025
19,AUCACUGUCACCUUCUCUGAGAGAUUAUGA,0.104 ± 0.02
20,UAGUGACAGACGUUCUCUGUGAGAUUAACA,0.00632 ± 0.0029
21,UAGUCAGUCACCUUCUCUGAGAGAAUAACA,0.494 ± 0.084
22,UAGUGUGUCACCUUCUCAGAGUGAUUAACA,0.0242 ± 0.0077
23,UAGACUGUGACCUUCUCUGAGAGAUUUUGA,0.00978 ± 0.0037
24,UACACUGUCACCAUCUCUGUGAGAUUAACA,0.188 ± 0.015
